# Screen size: about 94,000 compounds; about 6,200 (6.6%) were called active. Inconclusive means that the source gave no clear call. Such entries were picked first, then a sample of the others. Calls come from the whole dose curve; as a rule, active = well fitted inhibition curve with a large enough effect; inconclusive = small, poorly fitted or top-dose-only effect; inactive = flat fitted curve, though single readings scatter. Potencies beside an inconclusive call are fits to weak or partial responses and may not hold up.
# Experiment: Cytotoxic Profiling in HEK 293 Cell Line of Diverse Libraries Using Quantitative High-Throughput Screening; note: nearly all actives have a fitted effect of over 60% in size
# Settings: HEK 293 viability, ATP luminescence (CellTiter-Glo), 48-72 h; series mostly up to 115 µM
# In short: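 ATP-coupled CellTiter-Glo luminescence served as viability read-out, recorded 10 min after reagent addition at room temperature. HEK 293 cells, 250 cells/well, had been incubated with pintool-transferred compound for 48 or 72 hr at 37 degree Celsius.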
# Potency is the fitted concentration of half-maximal effect; tags give direction and shape of the fitted curve.
row,Compound,Potency
1,Cc1cc(Cn2cc3c4c(cccc42)[C@H](CC(C)C)N[C@H](C(=O)N2CCN(C)CC2)C3)no1,"inconclusive: 79.4 µM [inhibitor, partial curve, poor fit]"
2,CCC(O)c1cc2n(n1)CCN(C(=O)c1cnn(-c3ccccn3)c1C)C2 (stereo unspecified),inactive
3,Cc1ccccc1C(=O)N1CC[C@](O)(c2ccccc2)[C@H](N(C)C)C1,"inconclusive: 70.8 µM [inhibitor, single point]"
4,O=C(NC1CCN(c2cc(-c3ccccc3)[nH]n2)C1)c1ccsc1 (stereo unspecified),"inconclusive: 56.2 µM [inhibitor, partial curve, poor fit]"
5,O=C(O)Cn1ccc2cc(OCCc3cccc(-c4ccccc4)c3)cnc21,"inconclusive: 89.1 µM [inhibitor, partial curve, poor fit]"
6,c1ccc(CC2=NOC3(CCCN(Cc4ccns4)C3)C2)cc1 (stereo unspecified),"inconclusive: 112 µM [inhibitor, partial curve]"
7,Cc1ccc(-n2cc(CN3CCC(CCO)CC3)c(-c3cccc(C)c3)n2)cc1,"inconclusive: 56.2 µM [inhibitor, partial curve, poor fit]"
8,O=C1CCCN1CCCNC(=O)C1(CCO)CCN(Cc2ccccc2)C1 (stereo unspecified),inactive
9,Cc1ccc(OCC(=O)N[C@@H]2CCOC[C@H]2Oc2cccc(F)c2)cc1C,"inconclusive: 79.4 µM [inhibitor, partial curve, poor fit]"
10,Cn1nc(-c2nncn2-c2ccccc2)c2c1CCN(C(=O)c1ccncc1)C2,inactive
11,CC1=C[C@@H](CNC(=O)C(C)(C)C)[C@H](C(C)C)C[C@H]1CC(=O)N1CCN(c2ccccn2)CC1,"inconclusive: 89.1 µM [inhibitor, single point]"
12,CN(C)C(=O)N1CCC2(CC1)CC(c1cccc(C(F)(F)F)c1)=NO2,active: 44.7 µM
13,COc1ccc(-c2noc([C@@H]3CCCN3C(=O)Cc3ccc(F)cc3)n2)cc1,"inconclusive: 50.1 µM [inhibitor, partial curve, poor fit]"
14,CN1CCN(C(=O)c2cnc(-c3ccccn3)nc2)[C@H]2CS(=O)(=O)C[C@H]21,"inconclusive: 28.2 µM [inhibitor, partial curve]"
15,Cc1ccc(C)c(NC(=O)Cn2c(-c3ccc(F)cc3)nc(C)c(CCO)c2=O)c1,inactive
16,COc1ccccc1Cn1c(=O)c(C(=O)N2CCN(C(=O)c3ccc(C)cc3)CC2)nc2cccnc21,inactive
17,CCc1nc2c(c(-c3ccc(O)cc3)n1)CN(Cc1ccccc1OC)CC2,active: 44.7 µM
18,COc1ccc(Nc2ccnc(N3CCC(NC(=O)C4CC4)CC3)n2)cc1,"inconclusive: 50.1 µM [inhibitor, partial curve, poor fit]"
19,CCCc1nc(C(=O)NC(C)c2cnn(-c3ccccc3)c2C)cs1 (stereo unspecified),"inconclusive: 89.1 µM [inhibitor, single point]"
20,O=C(NCC(F)(F)F)c1cn2cc(-c3cccc(C(F)(F)F)c3)sc2n1,"inconclusive: 56.2 µM [inhibitor, partial curve, poor fit]"
21,COc1ccc(-c2nc(C)nc3c2CN(C(=O)N(C)C)CC3)cc1,inactive
22,O=C(NCCNC(=O)c1ccc(-c2cccc(C(F)(F)F)c2)cc1)Nc1ccccc1,"inconclusive: 100 µM [inhibitor, single point]"

row,Compound,Potency
1,Cc1ccc(CN2CCCN(S(=O)(=O)c3ccccc3)CCC(=O)NCC2)o1,inactive
2,O=C(c1ccnc(-c2nnc3ccc(Nc4ccccc4)nn23)c1)N1CCCCC1,"inconclusive: 70.8 µM [inhibitor, partial curve, poor fit]"
3,Cc1oc2ccn(Cc3ccc(F)cc3)c(=O)c2c1C(=O)O,inactive
4,C#CCNC(=O)C[C@@H]1C[C@@H](C(C)C)[C@H](CNS(=O)(=O)c2cccc(C#N)c2)C=C1C,"inconclusive: 89.1 µM [inhibitor, partial curve, poor fit]"
5,CC(C)OC(C)C(=O)N1CCc2onc(-c3ccc(C(F)(F)F)cc3)c2C1 (stereo unspecified),active: 28.2 µM
6,COc1ccc(-c2cc(N3CCCN(C(=O)Cc4cccc(F)c4)CC3)n[nH]2)cc1,active: 39.8 µM
7,N#Cc1cccnc1-c1ccc(C(=O)N2CCC(NC(=O)c3ccccc3Cl)CC2)cc1,inactive
8,COc1ccc(CC(=O)N2CCCCC23Cc2ccccc2NC3=O)cc1 (stereo unspecified),"inconclusive: 17.8 µM [inhibitor, full curve]"
9,CN1CC(=O)N(C2CCCC2)Cc2c1ncnc2N1CCN(c2ncccn2)CC1,inactive
10,CC(C)Oc1ccc(C(=O)NC2CCN(c3cnn(C)c(=O)c3)CC2)cc1,inactive
11,COCc1ccc2c(c1)c(OC(C)(C)C(=O)Nc1cc(C)nn1C)nn2Cc1ccccc1,"inconclusive: 79.4 µM [inhibitor, partial curve, poor fit]"
12,COc1cccc(NC(=O)C2(C)CN(C)Cc3ccc(NCc4ccccc4)nc32)c1 (stereo unspecified),"inconclusive: 63.1 µM [inhibitor, full curve]"
13,Cc1ccc(CN[C@@H]2CO[C@H](CNC(=O)Nc3ccccc3)[C@H]2O)cc1,inactive
14,CN(Cc1ncc[nH]1)c1ccc(-c2nc(CCCc3ccccc3)no2)cn1,active: 44.7 µM
15,CC1CCN(c2ncnc3c2CN(c2ccccc2)C(=O)N(C)C3)C1 (stereo unspecified),inactive
16,CCc1cc(=O)n(CC(=O)Nc2cccc(Cl)c2C)c(N2CCOCC2)n1,"inconclusive: 89.1 µM [inhibitor, single point]"
17,O=C(OCCF)N1CCC(Oc2cnc3c(ccn3-c3cncnc3)c2)CC1,"inconclusive: 89.1 µM [inhibitor, partial curve, poor fit]"
18,COc1ccc2ccc(OCc3nc(C(=O)N(C)CC4COCCO4)co3)cc2c1 (stereo unspecified),"inconclusive: 56.2 µM [inhibitor, partial curve, poor fit]"
19,O=C(NCCCn1ccc2ccccc21)C1CC(=O)N(C2CCCC2)C1 (stereo unspecified),inactive
20,CNC(=O)N1CCC(C2CCN(C(=O)c3cn[nH]c3)C2)CC1 (stereo unspecified),inactive
21,CC(C)(CC1Cc2ccccc2C1)NC(=O)C1CC2(CCNCC2)CN1 (stereo unspecified),active: 25.1 µM
22,O=C1NCCCCCCN(C(=O)NCCc2ccccc2)[C@H]2CCCC[C@@H]12,"inconclusive: 89.1 µM [inhibitor, single point]"

row,Compound,Potency
1,O=C(NCc1ccco1)C1COC2(CCN(C(=O)c3ccco3)CC2)N1C(=O)c1ccc(F)cc1 (stereo unspecified),"inconclusive: 39.8 µM [inhibitor, partial curve, poor fit]"
2,CC(=O)NCCc1ncc(C)n1C1CCCCCCC1,"inconclusive: 50.1 µM [inhibitor, partial curve, poor fit]"
3,CC(C)(C)CC(=O)N[C@H]1C[C@@H](Cc2cc(CN3CCN(c4ccccc4)CC3)on2)C1(C)C,active: 25.1 µM
4,O=C(c1ccccc1OCC1CCCN(Cc2ccc3[nH]ccc3c2)C1)N1CCCC1 (stereo unspecified),"inconclusive: 50.1 µM [inhibitor, partial curve, poor fit]"
5,COc1ccc(CCNC(=O)c2cn3cc(-c4cccc(OC)c4)sc3n2)cc1,"inconclusive: 25.1 µM [inhibitor, full curve]"
6,Cc1cc(C(=O)N(CCC(=O)NCc2ccccc2)CCC(C)C)c(C)o1,"inconclusive: 50.1 µM [inhibitor, partial curve, poor fit]"
7,O=C(c1ccc(Cl)nc1)N1CCN(c2nccc(Nc3ccccc3F)n2)CC1,"inconclusive: 50.1 µM [inhibitor, partial curve, poor fit]"
8,COc1cccc(CC(=O)N2CCC(CC(=O)NCc3ccccc3)C2)c1 (stereo unspecified),"inconclusive: 50.1 µM [inhibitor, partial curve, poor fit]"
9,O=C(CN1C(=O)NC(c2ccc(Cl)cc2)C2=C1COC2=O)Nc1cc(F)ccc1F (stereo unspecified),active: 44.7 µM
10,O=C(c1cnco1)N1CC(F)(F)C[C@H]1c1nc(-c2ccccc2)no1,inactive
11,COc1ccc2[nH]c(C(=O)N3C[C@@H](CO)[C@H](c4ccncc4)C3)cc2c1,inactive
12,COCCCNC(=O)c1nc2nc(-c3ccccc3)c(Cl)cc2n1C,"inconclusive: 112 µM [inhibitor, partial curve, poor fit]"
13,O=C(NCc1ccco1)C1COC2(CCN(C(=O)c3cccs3)CC2)N1C(=O)c1ccccc1 (stereo unspecified),"inconclusive: 44.7 µM [inhibitor, partial curve, poor fit]"
14,CC(C)c1noc(-c2cn(C3CCCN(C(=O)c4ccncc4)C3)nn2)n1 (stereo unspecified),inactive
15,CC(C)CCN1CCC(C2CCN(C(=O)c3ccnn3C)C2)CC1 (stereo unspecified),inactive
16,COCC1CN(C)CC12CCN(C(=O)c1cc(Cl)ccc1OC)CC2 (stereo unspecified),"inconclusive: 79.4 µM [inhibitor, partial curve, poor fit]"
17,Cc1ccc(NC(=O)N2CCC3(CC2)SCC(=O)N3Cc2ccccc2)cc1,"inconclusive: 50.1 µM [inhibitor, partial curve, poor fit]"
18,c1ccc2ncc(CNC[C@H]3COCc4nc5ccccc5n43)cc2c1,"inconclusive: 100 µM [inhibitor, partial curve, poor fit]"
19,COc1ccc(-c2ccc3nc(-c4ccc(F)c(C)c4)oc3c2)c(OC)c1OC,active: 89.1 µM
20,CC(C)c1ccccc1OCC(=O)c1ccc2c(c1)N(CC(=O)NCC1CC1)C(=O)CO2,"inconclusive: 100 µM [inhibitor, single point]"
21,O=C(O)Cn1ccc2cc(OCc3cccc(-c4cccc(C(F)(F)F)c4)c3)cnc21,"inconclusive: 112 µM [inhibitor, partial curve, poor fit]"
22,CC1CCN(Cc2ccccc2OCC(O)CN2CCSCC2)CC1 (stereo unspecified),"inconclusive: 89.1 µM [inhibitor, single point]"
